The results in this text go back to the supplement of paper PMC11417369.

± gives the standard deviation of the averaged measurements. This is one part of the list.

The test relates to PfAP2-I AP2 domain 3 (GST-tagged). Briefly: gcPBM binding intensity (ln(normalized median fluorescence intensity)); higher = stronger DNA binding. The procedure, abridged: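 Probes on an Agilent 4 × 180k array were primer-extended, double-stranded and 36 bp long, taken from intergenic genomic regions, with negative controls added. GST-tagged P. falciparum DNA-binding domains from E. coli, about 25 μg on average, were applied to the array for 1 h in 1× PBS containing 1% milk, 0.2 mg/ml BSA, 0.5% salmon testes DNA and 0.03% Triton X-100. Binding intensity, obtained after Alexa488 anti-GST antibody detection and a 488 nm scan, is the highest Masliner-normalised natural-log median intensity across replicate spots of either probe orientation.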
Consider “ATTTATATATTTATATGTACATATCTATACATATAT [XGTACX_site7580]”, for which the “gcPBM binding intensity (ln)” value amounted to 7.93 ± 0.59.

Take “TTTTTAAAAAAAAAAAAATAAAAAAAAAAAAAATAT [XGTACX_negctrl_site7]”: the “gcPBM binding intensity (ln)” value was 7.64 ± 0.58.

For the sequence “AAATAAAGAATATAAATACACACTTAAATATATATT [CACACA_site4007]”, the “gcPBM binding intensity (ln)” value was 7.58 ± 0.61.

On to “TGGACCAAACGACAAAAAAAAAGCAGAAAACAAAAA [GTGCAC_negctrl_site693]”, for which the “gcPBM binding intensity (ln)” value was 7.62 ± 0.73.

As to “TATATTATATATTGGGGTACATATATATAAATATAA [XGTACX_site2296]”, the “gcPBM binding intensity (ln)” value is 7.97 ± 0.26.

Take “TATCAATATTAAAAAGTGCAAAATAAAATATAAAAT [GTGCAC_site9486]”: the “gcPBM binding intensity (ln)” value is 10.7 ± 0.23.

Turning to “AAAATAAATAGATAAGCACACAAGCATATAGACATA [CACACA_site7958]”, the “gcPBM binding intensity (ln)” value is 7.84 ± 0.47.

Consider “TAATTTCTTATGTATTGTACATATAATATATGATAT [XGTACX_site4898]”, for which the “gcPBM binding intensity (ln)” value came to 7.64 ± 0.38.

For “AATATATTTATGCTCATGCACTTTTTTTTTTTTTTT [GTGCAC_site9654]”, the “gcPBM binding intensity (ln)” value was determined as 9.01 ± 0.39.

On to “TATGTTATATTATAAGGATAAATTTTGATTATATAA [TGCATGCA_negctrl_site600]”, for which the “gcPBM binding intensity (ln)” value was 7.36 ± 0.52.

On to “AGAATAAAAAGGAACACACACACACCCATATATATA [CACACA_site3590]”, for which the “gcPBM binding intensity (ln)” value came to 8.29 ± 0.66.

Take “ATGTACATTTTTTTCACACATACATTAATTTATGAG [CACACA_site5801]”: the “gcPBM binding intensity (ln)” value worked out at 7.96 ± 0.49.

Turning to “TATATTTACATTGTAACACACATGAAATATTTATAT [CACACA_site6178]”, the “gcPBM binding intensity (ln)” value is 7.73 ± 0.35.

Take “TAGACTAATCCCAAAAGTACAGAAAAATTATATTAT [XGTACX_site8663]”: the “gcPBM binding intensity (ln)” value came to 7.84 ± 0.48.

For the sequence “TTATTTCAAATTAATTTACACACTTCATACTAAAAG [CACACA_site9039]”, the “gcPBM binding intensity (ln)” value was 8.11 ± 0.57.

Turning to “CATTATTTACCGCCGTGTACGTAATGAGAAATTAAA [XGTACX_site4662]”, the “gcPBM binding intensity (ln)” value came to 7.84 ± 0.4.

As for “TAATAAAAAAAGTGCACACACATAATATTTATATAT [CACACA_site7548]”, the “gcPBM binding intensity (ln)” value was found to be 9.7 ± 0.18.

In the case of “TTTATTTATTATTAAAGTACTAAATTACATTATTAT [XGTACX_site6624]”, the “gcPBM binding intensity (ln)” value worked out at 7.5 ± 0.15.

In the case of “TATTTAATTACATGAACACACATTAGATATTTTTAA [CACACA_site7405]”, the “gcPBM binding intensity (ln)” value came to 7.49 ± 0.51.

For the sequence “TGTTTTTTGTTCTTTACAAAAAAAAAAAAAAAAAAA [GTGCAC_negctrl_site61]”, the “gcPBM binding intensity (ln)” value is 8.12 ± 1.1.

Consider “ACATACAAGAATTAAACACACACAAAATATAAATTC [CACACA_site8985]”, for which the “gcPBM binding intensity (ln)” value amounted to 7.8 ± 0.71.

As to “TCTTGTATATACAGTAGTACTAAAAATTATTAAATA [XGTACX_site7896]”, the “gcPBM binding intensity (ln)” value was 7.79 ± 0.37.

Turning to “GAAAACAAATATGTAGCACACATTCACATAATATAT [CACACA_site8731]”, the “gcPBM binding intensity (ln)” value worked out at 8.21 ± 0.32.

“TTATGTTGTAAATGCACACATACAAATACAGATACA [CACACA_site4876]”: the “gcPBM binding intensity (ln)” value came to 9.79 ± 0.52.

Take “ATTATAATGGTAAAGTGTACAAATTTTTATTACACC [XGTACX_site5274]”: the “gcPBM binding intensity (ln)” value was 8.49 ± 0.092.

Turning to “ATAAATATAAAAATTTGTACATATATAGGTATAGGT [XGTACX_site1735]”, the “gcPBM binding intensity (ln)” value is 8.14 ± 0.6.

With “ATTGTTTATATTGATTGTACTCATTTTTTTTTTATT [XGTACX_site1946]”, the “gcPBM binding intensity (ln)” value turned out to be 8.1 ± 0.38.

Consider “ATATATTATATATATTACAACTTAAGAATATACATA [TGCATGCA_negctrl_site371]”, for which the “gcPBM binding intensity (ln)” value was found to be 7.5 ± 0.18.

Consider “TCCTGTGATTATATAACACACATTATTGCTTATAAG [CACACA_site1518]”, for which the “gcPBM binding intensity (ln)” value stood at 8.05 ± 0.64.

In the case of “ATAGTAAACGAAATAAAAAGATTAGCATAATATCCT [CACACA_negctrl_site1730]”, the “gcPBM binding intensity (ln)” value worked out at 7.61 ± 0.79.

For the sequence “ATATATTGAAAAAAATGTACGTATTTTTTTATGTTA [XGTACX_site4654]”, the “gcPBM binding intensity (ln)” value came to 7.92 ± 0.099.

“ATTATATATATATATACACACACACCCTAAAAATAT [CACACA_site8463]”: the “gcPBM binding intensity (ln)” value worked out at 8.29 ± 0.52.

As for “AATCAAAATTAATTAACACACAATTTTAATATTCTT [CACACA_site2063]”, the “gcPBM binding intensity (ln)” value is 7.47 ± 0.58.

Regarding “ACACATATATATTATTATTATATAATATATATATAT [CACACA_negctrl_site1545]”, the “gcPBM binding intensity (ln)” value stood at 8.62 ± 0.19.

In the case of “ACATGTTTTATGTGCACACAAAGTTGTTATGAGGTT [CACACA_site4031]”, the “gcPBM binding intensity (ln)” value came to 10.39 ± 0.078.

Take “ATATAATATTTCATGTGGACACATTTTATGATTGTA [XGTACX_site8770]”: the “gcPBM binding intensity (ln)” value turned out to be 7.97 ± 0.47.

As for “TTATTAAATTTTTTTTGTACTTATATATATATATAT [XGTACX_site2443]”, the “gcPBM binding intensity (ln)” value stood at 9.23 ± 0.18.

As to “TATGAATGTATATGTTGTACATATAAATATTTATAT [XGTACX_site1146]”, the “gcPBM binding intensity (ln)” value stood at 7.72 ± 0.34.

Take “ATTATTATATAGTGTGCATGCAATATTAATAAAACC [TGCATGCA_site245]”: the “gcPBM binding intensity (ln)” value amounted to 8.79 ± 0.52.

“AATAAATATATTACATATATGTGTAGTATTTTTTTA [TGCATGCA_negctrl_site268]”: the “gcPBM binding intensity (ln)” value was determined as 7.58 ± 0.26.

Consider “TAAGCTTGTAACAGTTTACACACTAATATTTATAAA [CACACA_site3907]”, for which the “gcPBM binding intensity (ln)” value came out at 7.58 ± 0.42.

Consider “TATATATATATATATTGTACTAAATCATTTAAATGA [XGTACX_site8016]”, for which the “gcPBM binding intensity (ln)” value worked out at 9.19 ± 0.57.

As for “AAAAAACAAAAACACACGCACACAAAAAAAAAAAAA [CACACA_site802]”, the “gcPBM binding intensity (ln)” value is 8.29 ± 0.64.

Consider “CACAAATATACAAATACACACAAATATACACATATA [CACACA_site7176]”, for which the “gcPBM binding intensity (ln)” value was determined as 7.67 ± 0.4.
